Data taken from PubChem BioAssay AID1745845 (National Center for Advancing Translational Sciences (NCATS), 2022).
Screen size: about 360,000 compounds; about 2,600 (0.72%) were called active. The inconclusive results got no clear call from the source; some entries with a clear call stand among them for comparison. Calls come from the whole dose curve; as a rule, active = well fitted inhibition curve with a large enough effect; inconclusive = small, poorly fitted or top-dose-only effect; inactive = no such curve, though single readings can be large or run the other way. Potencies beside an inconclusive call are fits to weak or partial responses and may not hold up.

Assay: Primary qHTS for Inhibitors of ATXN expression; note: nearly all actives have a fitted effect of over 55% in size
Conditions: HEK-293 ATXN2-luciferase reporter, luminescence, 24 h; activity change, negative = inhibition: at 57 µM (top of the series)
Description: University of Utah School of Medicine, Salt Lake City, Utah
Spinocerebellar ataxia type 2 (SCA2) is a multisystem neurodegenerative disease caused by a dominantly acting mutation leading to expansion of a polyQ domain in the ataxin-2 protein (ATXN2). SCA2 patients develop progressive ataxia and later lose function in other neuronal systems. Prominent parkinsonian signs develop in some patients. Like many neurodegenerative disorders, no symptomatic or disease-modifying treatments are known.
The primary objective of the proposed research is to identify compounds inhibiting ATXN2 expression and to test them for efficacy in SCA2 mouse models. We have developed a cell-based assay paired with an in vivo mouse model using identical luciferase expression constructs. This approach takes advantage of an ATXN2-luciferase transgene, with the luciferase gene flanked by the upstream and downstream portions of the ATXN2 gene. Here we describe a 5-7 dose quantitative high thoroughput screen (qHTS) for compounds lowering ATXN2 expression. We screened the NIH Molecular Libraries Small Molecule Repository (MLSMR) and NCGC's mechanistically annotated (MIPE) and drug repurposing (NPC) collections of compounds for lowering expression of an ATXN2-luciferase reporter in HEK-293 cells. The assay is a multiplexed cell viability assay to ensure target reduction in the absence of cytotoxicity. Secondary qHTS assays included a CMV-luciferase reporter expressed in HEK-293 cells as well as a biochemical assay using recombinant luciferase to detect inhibitors of the reporter enzyme. Compounds that inhibit ATXN2 expression but is not cytotoxic were selected for confirmatory and secondary screens.
PROTOCOL TABLE (as described by Inglese J, Shamu CE and Guy RK. 2007)
SEQUENCE No. (e.g., 1, 2, 3, etc.); […] (e.g., Cells, Incubation, Reagent, etc.); VALUE; DESCRIPTION.
1; Cells; 4 uL; white, solid bottom, 1536-well Greiner assay plate.
2; Incubation; 2 hr; 37 degree C in 5% humidified CO2.
3; Compounds; 23 nL; Kalypsis pintool (Wako USA) equipped with a 1536-well pin head.
4; Incubation; 24 hr; 37 degree C in 5% humidified CO2.
5; Reagent; 1 uL; Gly-Phe-7-Amino-4-trifluoromethylcoumarin.
6; Incubation; 30 min; 37 degree C in 5% humidified CO2.
7; Detection; Fluorescence; ViewLux plate reader (PerkinElmer).
8; Reagent; 3 uL; SteadyGlo luciferase solution (Promega).
9; Incubation; 5 min; room temperature.
10; Detection; Luminescence; ViewLux plate reader (PerkinElmer).
NOTES (numbers refer to Sequence numbers above)
1. S2 cells expressing ATXN2-luciferase reporter were suspended in phenol-red free DMEM and dispensed in assay plates using a Multidrop Combi dispenser (Thermo Fisher Scientific).
2. Assay plates were incubated. Evaporation was prevented by covering assay plates with metal lids containing holes to allow gas diffusion.
3. Compounds were added in a dose response manner with the final concentrations of 57, 11.4, 2.28, 0.46, 0.091, 0.018, 0.0037 uM. Vehicle-only plates, with DMSO being pin-transferred to columns 5-48, were inserted uniformly at the beginning and the end of each library to monitor and record any shifts in assay performance.
5. 125 uM Gly-Phe-7-Amino-4-trifluoromethylcoumarin (MP Biomedicals) working concentration was used at a final concentration of 25 uM.
7. To assess cell viability; the assay plates were read using the ViewLux high-throughput CCD imager (PerkinElmer), wherein single end-point fluorescence measurement was acquired (excitation 405/10; emission 540/25 nm).
8. Detection reagent SteadyGlo Luciferase (Promega) was added to the assay plate.
10. Luminescence is then measured on the ViewLux imager equipped with a clear emission filter using a 2 sec exposure. All screening operations were performed on a fully integrated robotic system (Kalypsys) containing one RX-130 and two RX-90 anthropomorphic robotic arms (Staubli).
[…]
% is set by controls: 0 for no effect and ±100 for the full control effect; potency is the fitted concentration of half-maximal effect; tags give direction and shape of the fitted curve.

Row | SMILES | Potency | activity change, negative = inhibition
1 | CCN(CC)S(=O)(=O)c1ccc(NC(=O)c2ccc(OCC3CCCO3)cc2)cc1 (stereo not given) | inconclusive: 3.98 µM [inhibitor, partial curve] | –
2 | CC(=O)N=C1C=CC(=CN(O)C(C)(C)Cc2ccccc2)C=C1 | inactive | –
3 | O=S(=O)(c1cc(Cl)ccc1Cl)N1CCCCC1 | inconclusive: 20 µM [inhibitor, partial curve, poor fit] | –
4 | [O-]/[N+](=C\c1ccccc1)[C@@H]1CCCC[C@@H]1/[N+]([O-])=C/c1ccccc1 | inactive | –
5 | CCC/C(=N\NC(=O)C1CC1)c1ccccc1 | inactive | –
6 | Cc1ccc(C)c(-n2nnnc2Sc2nnnn2-c2ccccc2)c1 | inconclusive: 31.6 µM [inhibitor, single point] | –
7 | Cc1ccc(NC(=O)C2CCN(c3nc4ccccc4nc3C(F)(F)F)CC2)cc1F | inconclusive: 7.08 µM [inhibitor, partial curve, poor fit] | –
8 | NC(=O)CCCn1c(C(=O)c2ccc(Cl)cc2)c2ccc([N+](=O)[O-])cc2[n+]1[O-] | inconclusive: 17.8 µM [inhibitor, partial curve] | –
9 | C=C(C)CNC(=S)N=Nc1c(O)[nH]c2ccc([N+](=O)[O-])cc12 | inconclusive: 11.9 µM [inhibitor, partial curve, poor fit] | –
10 | CCc1ccc(NC(=O)Nc2ccc3c(c2)N(C)C(=O)CS3)cc1 | inconclusive: 39.8 µM [inhibitor, single point] | –
11 | CCN(CC)c1cc(C)c2cc(NC(=O)c3cccc(F)c3)ccc2n1 | inconclusive: 28.2 µM [inhibitor, single point] | –
12 | CCCC#Cc1ccc2c(c1)O[C@@H](CN(C)Cc1ccc3c(c1)OCO3)[C@H](C)CN([C@@H](C)CO)S2(=O)=O | inconclusive: 20 µM [inhibitor, single point] | –
13 | Cc1nc(NC(=O)N2CCC[C@@H]2C(N)=O)sc1-c1ccnc(C(C)(C)C(F)(F)F)c1 | inconclusive: 27.3 µM [inhibitor, partial curve, poor fit] | –
14 | COc1ccc(C(C)(NC(C)=O)c2nc(-c3cccc(C(F)(F)F)c3)cs2)cc1 (stereo not given) | inconclusive: 28.2 µM [inhibitor, single point] | –
15 | COc1ccc(CCNC(=O)c2cnc3ccc(C)cn3c2=O)cc1 | inactive | –
16 | O=C(NCCCN1CCN(c2cccc(Cl)c2)CC1)C1CCC(=O)N1Cc1ccccc1Cl (stereo not given) | inconclusive: 15 µM [inhibitor, partial curve, poor fit] | –
17 | O=C(Nc1ccc(Cl)cc1)C1CCCN(c2ncnc3c2nc2n3CCCCC2)C1 (stereo not given) | inconclusive: 28.2 µM [inhibitor, single point] | –
18 | O=C(N/N=C\c1c(O)ccc2ccccc12)c1ccc(Cn2cccn2)o1 | active: 3.55 µM | –
19 | CCCCn1c(=O)[nH]c(=O)c2c1nc(Cn1ncc(Cl)c(Cl)c1=O)n2CCC | inconclusive: 39.8 µM [inhibitor, single point] | –
20 | COc1ccc(CN2C(=O)[C@@H]3Cc4c([nH]c5ccccc45)C(C)(C)N3C2=O)cc1 | inconclusive: 39.8 µM [inhibitor, single point] | –
21 | Cc1ccc(-n2[nH]c(C)c(/C=N/NC(=O)c3ccc(O)cc3O)c2=O)cc1 | inconclusive: 3.16 µM [inhibitor, full curve] | –
22 | CCN1CCN(C(=O)C2CCC(CNS(=O)(=O)c3ccccc3)CC2)CC1 (stereo not given) | inactive | –

Row | SMILES | Potency | activity change, negative = inhibition
23 | O=C(Nc1ccccc1)C(c1ccccc1)C1CCCC1 (stereo not given) | – | inactive: -19.6% [at 11.3 µM]
24 | Cc1ccc2c(c1)COc1c3ccc(C(=O)NCCO)cc3nn1-2 | inactive | –
25 | CC(=O)Nc1ccc(CNc2nc(NC(C)C)nc3cc(-c4ccccc4)sc23)cc1 | active: 22.4 µM | –
26 | COc1cccc(-n2nc(C(C)=O)c(=O)[nH]c2=O)c1 | inactive | –
27 | O=C1c2cccc(OCC(=O)N3CCCc4ccccc43)c2CCN1Cc1ccc(F)cc1 | inconclusive: 39.8 µM [inhibitor, single point] | –
28 | COc1cccc(/C=C/C(=O)OCC(=O)NCC2CCCO2)c1OC (stereo not given) | inactive | –
29 | Cc1ccccc1-c1cc(C(=O)Nc2sc(C)c(C)c2C(N)=O)c2ccccc2n1 | inconclusive: 31.6 µM [inhibitor, single point] | –
30 | O=C(O)CCC(=O)NNc1nc(-c2ccccc2)c2cc(Cl)ccc2n1 | inactive | –
31 | CC1(Cc2ccccc2Cl)C(=O)Nc2ccc(OC(F)(F)F)cc21 (stereo not given) | inconclusive: 22.4 µM [inhibitor, partial curve] | –
32 | COc1cc(CNCCc2c[nH]c3ccccc23)ccc1OCc1ccc(F)cc1 | inconclusive: 31.6 µM [inhibitor, single point] | –
33 | Cc1ccc(C(C)(C)C)cc1S(=O)(=O)N1CCC(C(=O)N2CCN(c3ccc(O)cc3)CC2)CC1 | inconclusive: 2.24 µM [inhibitor, partial curve, poor fit] | –
34 | CC(C)Oc1cc(Nc2nc(N[C@@H](C)c3ccc(F)cn3)ncc2Cl)[nH]n1 | inconclusive: 38.5 µM [inhibitor, single point] | –
35 | Cn1c(=O)c(=O)n(C)c2cc(S(=O)(=O)Nc3ccc4c(c3)OCCO4)ccc21 | inconclusive: 35.5 µM [inhibitor, partial curve, poor fit] | –
36 | Cn1cc(CN2CCCC(C(=O)c3cc(F)ccc3F)C2)c2ccccc21 (stereo not given) | inconclusive: 1.58 µM [inhibitor, partial curve, poor fit] | –
37 | COc1cc(/C=C2/C(=O)N(C)C(=S)N2C)ccc1OCc1cccc(F)c1 | inactive | –
38 | CC(=O)OCC1=C(C(=O)O)N2C(=O)C(NC(=O)c3ccc(COc4c(C)cccc4Cl)o3)C2SC1 (stereo not given) | inactive | –
39 | Nc1ccc(N(c2ccccc2)c2ccc(N)cc2)cc1 | inconclusive: 25.1 µM [inhibitor, partial curve, poor fit] | –
40 | BrC(/C=N/N1CCN(Cc2ccccc2)CC1)=C/c1ccccc1 | inactive | –
41 | Cc1cccc(/C=C2/Sc3ccc(C(=O)N4CCOCC4)cc3NC2=O)c1 | inconclusive: 25.1 µM [inhibitor, partial curve, poor fit] | –
42 | COc1ccc(S(=O)(=O)c2nnn(-c3cc(Cl)c(OC)cc3OC)c2C)cc1 | inconclusive: 15.8 µM [inhibitor, partial curve, poor fit] | –
43 | Cc1ccc(-n2sc3cc(F)ccc3c2=O)c(C)c1 | inconclusive: 31.6 µM [inhibitor, single point] | –
44 | O=C1C=CC(=O)N1CCCCCCN1C(=O)C=CC1=O | inconclusive: 39.8 µM [inhibitor, single point] | –

Row | SMILES | Potency | activity change, negative = inhibition
45 | COc1ccc(C(NC(C)=O)c2c(O)ccc3ccccc23)cc1OC (stereo not given) | inactive | –
46 | Cc1c(C(=O)c2no[n+]([O-])c2C(=O)c2cnn(C)c2C)cnn1C | inconclusive: 39.8 µM [inhibitor, single point] | –
47 | COc1ccc(CCNS(=O)(=O)c2ccc(N3CCCC3=O)cc2)cc1 | inactive | –
48 | CCn1nc([N+](=O)[O-])c(C(C#N)c2nc3cc(C(F)(F)F)ccc3s2)c(Cl)c1=O (stereo not given) | inconclusive: 35.5 µM [inhibitor, partial curve, poor fit] | –
49 | COc1cccc(-c2nc(SCc3cc(=O)c4ccc(C)c(C)c4[nH]3)n[nH]2)c1 | inconclusive: 39.8 µM [inhibitor, single point] | –
50 | CC1CCN(c2cc(N3CCOCC3)c([N+](=O)[O-])cc2F)CC1 | inactive | –
51 | COc1ccc(NC(=O)C2(C)Cc3c(-c4cccc(C(F)(F)F)c4)ccnc3O2)cc1OC (stereo not given) | inconclusive: 39.8 µM [inhibitor, single point] | –
52 | c1nc2nc(Nc3ccc(N4CCOCC4)cc3)nc(NC3CCCCC3)c2[nH]1 | active: 24.3 µM | –
53 | COc1ccccc1CNc1nc(=S)[nH]c2cc(OC)c(OC)cc12 | inactive | –
54 | O=C(O)c1ccccc1SCc1cn2cc(Br)ccc2n1 | inconclusive: 14.1 µM [inhibitor, partial curve, poor fit] | –
55 | COc1cccc(C(=O)Oc2ccc(/C=N/Nc3ccc(C(=O)O)cc3)cc2OC)c1 | inconclusive: 39.8 µM [inhibitor, single point] | –
56 | CCC(=O)Nc1nc2ccccc2n1Cc1ccc(C)cc1 | inconclusive: 22.4 µM [inhibitor, partial curve, poor fit] | –
57 | O=C1/C(=C\c2cccnc2)SC(=S)N1C1CCS(=O)(=O)C1 (stereo not given) | inconclusive: 39.8 µM [inhibitor, single point] | –
58 | Cc1cc(C(=O)c2ccc(C(C)(C)C)cc2)c(NC(=O)CCl)s1 | inconclusive: 35.5 µM [inhibitor, single point] | –
59 | COc1cccc(CN2CCN(C(c3ccccc3)c3ccccc3)CC2)c1O | inconclusive: 14.1 µM [inhibitor, partial curve, poor fit] | –
60 | Cc1cc(NC(=O)COC(=O)c2ccc(S(=O)(=O)N3CCCC3)cc2)no1 | inactive | –
61 | CCOC(=O)c1c(C)oc2nc(C)nc(N3CCN(c4ccccc4)CC3)c12 | inconclusive: 28.2 µM [inhibitor, single point] | –
62 | COc1ccc(CCCNC(=O)C2(C)Cc3c(-c4ccc(NC(C)=O)cc4)ccnc3O2)cc1 (stereo not given) | inconclusive: 31.6 µM [inhibitor, partial curve, poor fit] | –
63 | Cc1ccc2nc(C(C)(C)C)c(Cc3cccc(F)c3)n2c1 | inconclusive: 31.6 µM [inhibitor, partial curve, poor fit] | –
64 | CC(=O)N1CCOc2ccc(S(=O)(=O)NC[C@H]3O[C@@H](n4ccc(=O)[nH]c4=O)[C@H](O)[C@@H]3O)cc21 | inactive | –
65 | Cc1ccc(S(=O)(=O)Nc2cccc(C(=O)NC3CCN(Cc4ccccc4)CC3)c2)cc1F | inactive | –
